In the supplement of paper PMC4166925:
± gives the standard deviation of the averaged measurements. In all, about 33,000 sequences were measured (“E-score (dimensionless, -0.5 to 0.5)”: median about -0.046, highest 2% from about 0.36 on). Some of the results follow.

What follows are sequences tested on T1, SpTbr T-box DNA-binding domain (GST fusion) (assay: PBM E-score of 8-mer (E-score (dimensionless, -0.5 to 0.5)); Tbr is Tbrain of the sea star Patiria miniata (Pm) or the sea urchin Strongylocentrotus purpuratus (Sp); higher = stronger binding preference; most listed sequences are background and not binding sites). Conditions: the construct has about 5 more residues each side.
T1 sequence: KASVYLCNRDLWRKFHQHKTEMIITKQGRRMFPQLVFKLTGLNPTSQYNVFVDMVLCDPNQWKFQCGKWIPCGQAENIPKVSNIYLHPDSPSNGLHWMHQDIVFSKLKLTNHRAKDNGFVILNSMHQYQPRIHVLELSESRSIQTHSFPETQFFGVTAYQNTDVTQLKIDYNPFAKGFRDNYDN
Method in brief: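 Using the Universal PBM Analysis Suite, every ungapped 8-mer received an enrichment E-score averaged over duplicate arrays. Probe intensities came from double-stranded Universal Agilent oligonucleotide arrays incubated with 200 nM GST-fused Tbr T-box DNA-binding domain in PBS (pH 7.5). That protein was expressed in BL21 E. coli at 20 °C and purified by glutathione affinity chromatography.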
For ATTTCAAC, the “PBM E-score of 8-mer” value was 0.0766 ± 0.074. In the case of TCATGCGA, the “PBM E-score of 8-mer” value is reported as 0.133 ± 0.0089. In the case of GAAAACTC, the “PBM E-score of 8-mer” value is reported as -0.168 ± 0.0071. For ATTCGTTC, the “PBM E-score of 8-mer” value was -0.0491 ± 0.048. For ATCTGAGC, the “PBM E-score of 8-mer” value was -0.133 ± 0.0053. For CTGAGATC, the “PBM E-score of 8-mer” value was 0.0205 ± 0.036. AGAAGGAC was tested, and the “PBM E-score of 8-mer” value was -0.209 ± 0.038. For GTTCATTA, the “PBM E-score of 8-mer” value was -0.205 ± 0.056. GTTTAGAA was tested, and the “PBM E-score of 8-mer” value was -0.164 ± 0.028. For CAGTCTTA, the “PBM E-score of 8-mer” value was -0.259 ± 0.01. GGCCCGCC was tested, and the “PBM E-score of 8-mer” value was -0.0359 ± 0.049. In the case of GAAAATAA, the “PBM E-score of 8-mer” value is reported as -0.0911 ± 0.059. With CATTGCTC the “PBM E-score of 8-mer” value was -0.166 ± 0.016. In the case of GAGACCCA, the “PBM E-score of 8-mer” value is reported as -0.0603 ± 0.078. In the case of ACCAGGTG, the “PBM E-score of 8-mer” value is reported as 0.3638 ± 0.0033. For AACTAAGC, the “PBM E-score of 8-mer” value was -0.268 ± 0.004. With CTGGCGAA the “PBM E-score of 8-mer” value was 0.0471 ± 0.05. In the case of CCACAGGG, the “PBM E-score of 8-mer” value is reported as 0.041 ± 0.013. In the case of AAGTCGAG, the “PBM E-score of 8-mer” value is reported as 0.109 ± 0.066. AGAAGGTA was tested, and the “PBM E-score of 8-mer” value was -0.167 ± 0.031. In the case of AGTTGAGC, the “PBM E-score of 8-mer” value is reported as -0.143 ± 0.097. With CGTGGTCC the “PBM E-score of 8-mer” value was -0.204 ± 0.045. CCTATGAC was tested, and the “PBM E-score of 8-mer” value was -0.049 ± 0.0007. With AAAATGCT the “PBM E-score of 8-mer” value was -0.27 ± 0.019. With ATCAGTGA the “PBM E-score of 8-mer” value was 0.139 ± 0.013. With GGAGTTAA the “PBM E-score of 8-mer” value was -0.088 ± 0.11. With CGATGTCC the “PBM E-score of 8-mer” value was -0.155 ± 0.013. With ATCCTACC the “PBM E-score of 8-mer” value was -0.141 ± 0.013. For CTCGCAGA, the “PBM E-score of 8-mer” value was 0.0495 ± 0.024. With AGCCGGTG the “PBM E-score of 8-mer” value was -0.0142 ± 0.0014. For GAGGGTAC, the “PBM E-score of 8-mer” value was -0.142 ± 0.018. AGGTGATC was tested, and the “PBM E-score of 8-mer” value was 0.116 ± 0.085. With ACGTCCAT the “PBM E-score of 8-mer” value was -0.0423 ± 0.096. With GGAATTGA the “PBM E-score of 8-mer” value was -0.164 ± 0.058. For ACTAATGA, the “PBM E-score of 8-mer” value was -0.119 ± 0.0051. With TCCGCTCA the “PBM E-score of 8-mer” value was -0.134 ± 0.0034. In the case of ATTGAAAC, the “PBM E-score of 8-mer” value is reported as -0.166 ± 0.016. With GGGTTACA the “PBM E-score of 8-mer” value was -0.0798 ± 0.0058. ACGTATTA was tested, and the “PBM E-score of 8-mer” value was 0.00743 ± 0.069. In the case of CACTCGTA, the “PBM E-score of 8-mer” value is reported as 0.0708 ± 0.022. GCACCTTA was tested, and the “PBM E-score of 8-mer” value was 0.404 ± 0.026. For CAGGATTC, the “PBM E-score of 8-mer” value was -0.0775 ± 0.06. AGCGCAGG was tested, and the “PBM E-score of 8-mer” value was -0.112 ± 0.082. With CGATCACG the “PBM E-score of 8-mer” value was 0.221 ± 0.037. CGGCCACG was tested, and the “PBM E-score of 8-mer” value was -0.0155 ± 0.052. In the case of CGCGAAGC, the “PBM E-score of 8-mer” value is reported as 0.324 ± 0.033. For ACAGTCTC, the “PBM E-score of 8-mer” value was 0.102 ± 0.041. With CGGACTAC the “PBM E-score of 8-mer” value was -0.195 ± 0.018. CAGCAGGC was tested, and the “PBM E-score of 8-mer” value was -0.0589 ± 0.024. For ACTTAGAG, the “PBM E-score of 8-mer” value was -0.0957 ± 0.015. With GTAGTCGA the “PBM E-score of 8-mer” value was -0.0817 ± 0.051. For AGTACATG, the “PBM E-score of 8-mer” value was -0.06753 ± 0.00033. For ACCTGACA, the “PBM E-score of 8-mer” value was 0.251 ± 0.016. In the case of GGGTGTAC, the “PBM E-score of 8-mer” value is reported as -0.0335 ± 0.078. ATTACTGG was tested, and the “PBM E-score of 8-mer” value was -0.152 ± 0.022. In the case of ACTATGTG, the “PBM E-score of 8-mer” value is reported as 0.137 ± 0.022. With CCCAGTCA the “PBM E-score of 8-mer” value was -0.285 ± 0.038. With CCGGATCC the “PBM E-score of 8-mer” value was -0.25 ± 0.02. In the case of CAGCGGTC, the “PBM E-score of 8-mer” value is reported as -0.18 ± 0.023. With ACTTCCGG the “PBM E-score of 8-mer” value was -0.11 ± 0.035. For AAGGGAGC, the “PBM E-score of 8-mer” value was 0.0395 ± 0.013. With ACCTGAAA the “PBM E-score of 8-mer” value was 0.0131 ± 0.042. With AAGCATGT the “PBM E-score of 8-mer” value was -0.083 ± 0.043. In the case of GATAAAGC, the “PBM E-score of 8-mer” value is reported as 0.0575 ± 0.077. For CCGTCTGC, the “PBM E-score of 8-mer” value was 0.118 ± 0.05. In the case of AGCCAAAT, the “PBM E-score of 8-mer” value is reported as 0.0358 ± 0.01. AAATGTCG was tested, and the “PBM E-score of 8-mer” value was 0.0946 ± 0.046. TATTACAA was tested, and the “PBM E-score of 8-mer” value was -0.0456 ± 0.052. For ACAACGAG, the “PBM E-score of 8-mer” value was -0.0178 ± 0.044. With ATGCGGTA the “PBM E-score of 8-mer” value was 0.0163 ± 0.082. AATCTCAT was tested, and the “PBM E-score of 8-mer” value was -0.0127 ± 0.017. In the case of CTAGGGGA, the “PBM E-score of 8-mer” value is reported as -0.142 ± 0.062. For CAGTCACA, the “PBM E-score of 8-mer” value was 0.273 ± 0.031. In the case of CACAATCC, the “PBM E-score of 8-mer” value is reported as 0.0504 ± 0.056. In the case of AAGGAGCA, the “PBM E-score of 8-mer” value is reported as -0.281 ± 0.049. For CTCGACAG, the “PBM E-score of 8-mer” value was 0.238 ± 0.012. In the case of ATTTTTAG, the “PBM E-score of 8-mer” value is reported as -0.0922 ± 0.024. With ACTCACGA the “PBM E-score of 8-mer” value was 0.114 ± 0.014. In the case of CTGGTGTC, the “PBM E-score of 8-mer” value is reported as 0.312 ± 0.033. With TCGTCGCA the “PBM E-score of 8-mer” value was 0.114 ± 0.038. For CGGAAAGA, the “PBM E-score of 8-mer” value was -0.148 ± 0.026. With GAGCTGCC the “PBM E-score of 8-mer” value was 0.0961 ± 0.0086. CCAAACTA was tested, and the “PBM E-score of 8-mer” value was -0.216 ± 0.12. With AACGAACT the “PBM E-score of 8-mer” value was 0.0664 ± 0.032. GACACTGC was tested, and the “PBM E-score of 8-mer” value was 0.202 ± 0.018. CCATAACC was tested, and the “PBM E-score of 8-mer” value was 0.0123 ± 0.046. ATCGGTTG was tested, and the “PBM E-score of 8-mer” value was 0.0891 ± 0.083. In the case of ATGAGGCG, the “PBM E-score of 8-mer” value is reported as 0.194 ± 0.024. In the case of ACGATAGT, the “PBM E-score of 8-mer” value is reported as -0.0125 ± 0.0048. In the case of CTGGGGGC, the “PBM E-score of 8-mer” value is reported as -0.241 ± 0.085. For TGATCACA, the “PBM E-score of 8-mer” value was 0.3239 ± 0.0012. AGCAATGA was tested, and the “PBM E-score of 8-mer” value was -0.00846 ± 0.0055. For GGAGTTCA, the “PBM E-score of 8-mer” value was 0.0197 ± 0.031. With AGCAACGG the “PBM E-score of 8-mer” value was -0.105 ± 0.035. CCTACGTA was tested, and the “PBM E-score of 8-mer” value was -0.305 ± 0.018. With AAATGGCG the “PBM E-score of 8-mer” value was -0.0381 ± 0.038. In the case of CTGGATCA, the “PBM E-score of 8-mer” value is reported as -0.0483 ± 0.036. In the case of CGAATTCA, the “PBM E-score of 8-mer” value is reported as 0.0155 ± 0.0036. In the case of TAGAACTA, the “PBM E-score of 8-mer” value is reported as -0.112 ± 0.0026. CGGCAATA was tested, and the “PBM E-score of 8-mer” value was 0.0054 ± 0.037. For AGCCAGGC, the “PBM E-score of 8-mer” value was -0.252 ± 0.052. In the case of CAGTTCCG, the “PBM E-score of 8-mer” value is reported as -0.125 ± 0.018. With AAATTTGG the “PBM E-score of 8-mer” value was -0.192 ± 0.02. For ATAAGCGC, the “PBM E-score of 8-mer” value was 0.22 ± 0.0039. In the case of ATGAGTCC, the “PBM E-score of 8-mer” value is reported as -0.241 ± 0.048. For AGAGCCAT, the “PBM E-score of 8-mer” value was 0.0497 ± 0.00099. GCCAGTCC was tested, and the “PBM E-score of 8-mer” value was -0.185 ± 0.019. AGACCCCG was tested, and the “PBM E-score of 8-mer” value was -0.124 ± 0.023. CTGCACTC was tested, and the “PBM E-score of 8-mer” value was -0.0706 ± 0.092. CCCACGTC was tested, and the “PBM E-score of 8-mer” value was -0.0245 ± 0.025.
